Results: patent EP4696329A1, “ANTI-ROR1 ANTIBODY AND DRUG CONJUGATE THEREOF” (priority 2023, dated 2024)

B1: ADC-2: antibody AM3-ZH3 conjugated to linker-drug compound LD-14, DAR 3.7~4.3 (conjugate)
heavy: EVQLVESGGGLVQPGGSLRLSCAASGFTFSSYPMSWVRQAPGKGLEWVSSISTGASAYFPDSVKGRFTISRDNAKNSLYLQMNSLRAEDTAVYYCARITTSTWYMDVWGQGTTVTVSS[gap - human IgG1 constant region]
light: DIQMTQSPSAMSASVGDRVTITCKASQDIYSYLSWFQQKPGKVPKTLIYRANRLVRGVPSRFSGSGSGQEYTLTISSLQPEDMATYYCLQYDEFPYTFGQGTKLEIKRTVAAPSVFIFPPSDEQLKSGTASVVCLLNNFYPREAKVQWKVDNALQSGNSQESVTEQDSKDSTYSLSSTLTLSKADYEKHKVYACEVTHQGLSSPVTKSFNRGEC
B2: ADC-3: bispecific antibody KIH YR8/ZH3 conjugated to linker-drug compound LD-14, DAR 3.7~4.3 (conjugate)
heavy 1: QVQLQESGPGLVKPSETLSLTCTVSGFSLTRYGVHWIRQPPGKGLEWLGVIWAGGFTNYESDLKSRLTISKDNSKNQVSLKLSSVTAADTAVYYCARRGDSYSMKYWGQGTLVTVSSASTKGPSVFPLAPSSKSTSGGTAALGCLVKDYFPEPVTVSWNSGALTSGVHTFPAVLQSSGLYSLSSVVTVPSSSLGTQTYICNVNHKPSNTKVDKKV[gap - human IgG1 Fc with changes]
light 1: EIVLTQSPATLSLSPGERATLSCSASSQVSYIHWYQQKPGQAPRPWIYETSKLASGIPARFSGSGSGTDYTLTISSLEPEDFAVYYCQQWNYPLITFGQGTKLEIKRTVAAPSVFIFPPSDEQLKSGTASVVCLLNNFYPREAKVQWKVDNALQSGNSQESVTEQDSKDSTYSLSSTLTLSKADYEKHKVYACEVTHQGLSSPVTKSFNRGEC
heavy 2: EVQLVESGGGLVQPGGSLRLSCAASGFTFSSYPMSWVRQAPGKGLEWVSSISTGASAYFPDSVKGRFTISRDNAKNSLYLQMNSLRAEDTAVYYCARITTSTWYMDVWGQGTTVTVSSASTKGPSVFPLAPSSKSTSGGTAALGCLVKDYFPEPVTVSWNSGALTSGVHTFPAVLQSSGLYSLSSVVTVPSSSLGTQTYICNVNHKPSNTKVDKKV[gap - human IgG1 Fc with changes]
light 2: B1 light
B3: ADC-4: bispecific antibody KIH YR8/ZH3 conjugated to linker-drug compound LD-1, DAR 3.7~4.3 (conjugate)
heavy 1: QVQLQESGPGLVKPSETLSLTCTVSGFSLTRYGVHWIRQPPGKGLEWLGVIWAGGFTNYESDLKSRLTISKDNSKNQVSLKLSSVTAADTAVYYCARRGDSYSMKYWGQGTLVTVSSASTKGPSVFPLAPSSKSTSGGTAALGCLVKDYFPEPVTVSWNSGALTSGVHTFPAVLQSSGLYSLSSVVTVPSSSLGTQTYICNVNHKPSNTKVDKKV[gap - human IgG1 Fc with changes]
light 1: B2 light 1
heavy 2: EVQLVESGGGLVQPGGSLRLSCAASGFTFSSYPMSWVRQAPGKGLEWVSSISTGASAYFPDSVKGRFTISRDNAKNSLYLQMNSLRAEDTAVYYCARITTSTWYMDVWGQGTTVTVSSASTKGPSVFPLAPSSKSTSGGTAALGCLVKDYFPEPVTVSWNSGALTSGVHTFPAVLQSSGLYSLSSVVTVPSSSLGTQTYICNVNHKPSNTKVDKKV[gap - human IgG1 Fc with changes]
light 2: B1 light
B4: ADC-5: antibody AM3-ZH3 conjugated to linker-drug compound LD-1, DAR 3.7~4.3 (conjugate)
heavy: B1 heavy
light: B1 light

system: subcutaneous HCC1187 tumors; experiment: ADC efficacy in breast cancer cell line HCC1187 graft mouse model; format: in vivo, CB17 SCID mouse; conditions: HCC1187, 1 mg/kg, Q4D×2, intravenous
Method: (§1) 1 × 10^7 HCC1187 cells (a breast cancer cell line that expresses human ROR1, purchased from ATCC) were subcutaneously grafted into each female severe combined immunodeficiency CB17 SCID mouse (purchased from Charles River Laboratories). After the graft, when the average tumor size reached 162 mm^3 (day 0), the mice were divided into groups, and the ADC1, ADC2, ADC3, ADC4, or ADC5 prepared in Example 8 was intravenously injected into mice at 3.0 mg/kg once (single administration), or ADC2, ADC3, ADC4, or ADC5 was intravenously injected into mice at 1.0 mg/kg once every four days for a total of two doses (day 0 and day 4, Q4D × 2). In the control group, PBS was intravenously injected into mice at 4 mL/kg. During the 48 days thereafter, the tumor size and body weight of the mice were measured, and the tumor growth inhibition (TGI) rate was calculated. TGI was calculated as follows: TGI (%) = 1−[(Td−T0)/(Cd−C0)] × 100% [formula] where Td and Cd are the average tumor volumes of the treatment group and the control group on the day of tumor volume measurement, and T0 and C0 are the average tumor volumes of the treatment group and the control group on day 0.

| Molecule | Tumor growth inhibition rate TGI% (day 27) |
| --- | --- |
| B1 | 111.08% |
| B2 | 111.01% |
| B3 | 111.64% |
| B4 | 111.35% |

same assay, conditions: HCC1187, 3 mg/kg, single administration, intravenous

| Molecule | Tumor growth inhibition rate TGI% (day 27) |
| --- | --- |
| B1 | 109.30% |
| B2 | 111.26% |
| B3 | 111.25% |
| B4 | 111.77% |

system: subcutaneous Jeko-1 tumors; experiment: ADC efficacy in mantle cell lymphoma cell line Jeko-1 graft mouse model; format: in vivo, CB17 SCID mouse; conditions: Jeko-1, 1 mg/kg, Q4D×3, intravenous
Method: as §1
1 × 10^7 Jeko-1 cells (mantle cell lymphoma cells that express human ROR1, purchased from ATCC) were subcutaneously grafted into each female severe combined immunodeficiency CB17 SCID mouse (purchased from Charles River Laboratories). After the graft, when the average tumor size reached 156 mm^3 (day 0), the mice were divided into groups, and the ADC1, ADC2, ADC3, ADC4, or ADC5 prepared in Example 8 was intravenously injected into mice at 3.0 mg/kg once (single administration), or ADC2, ADC3, ADC4, or ADC5 was intravenously injected into mice at 1.0 mg/kg once every four days for a total of three doses (day 0, day 4, and day 8, Q4D × 3). In the control group, PBS was intravenously injected into mice at 4 mL/kg. During the 51 days thereafter, the size of the tumor grafts in the mice and the body weight of the mice were measured, and the tumor growth inhibition (TGI) rate was calculated. Table 15. The tumor growth inhibition rates of different ADCs against subcutaneous Jeko-1 tumors in mice

| Molecule | Tumor growth inhibition rate TGI% (day 20) |
| --- | --- |
| B1 | 96.42% |
| B2 | 102.16% |
| B3 | 97.79% |
| B4 | 81.55% |

same assay, conditions: Jeko-1, 3 mg/kg, single administration, intravenous

| Molecule | Tumor growth inhibition rate TGI% (day 20) |
| --- | --- |
| B1 | 92.00% |
| B2 | 101.26% |
| B3 | 99.82% |
| B4 | 87.48% |

system: subcutaneous PA-1 tumors; experiment: ADC efficacy in ovarian cancer cell line PA-1 graft mouse model; format: in vivo, nude mouse; conditions: PA-1, 1 mg/kg, single administration, intravenous
Method: as §1, with “TGI was calculated as follows: TGI (%) = 1−[(Td−T0)/(Cd−C0)] × 100% [formula] where Td and Cd are the average tumor volumes of the treatment group and the control group on the day of tumor volume measurement, and T0 and C0 are the average tumor volumes of the treatment group and the control group on day 0.” left out
5 × 10^6 PA-1 cells (an ovarian cancer cell line that expresses human ROR1, purchased from ATCC) were subcutaneously grafted into each female nude mouse (purchased from Charles River Laboratories). […] During the 13 days thereafter, the tumor size and body weight of the mice were measured, and TGI was calculated. […]

| Molecule | Tumor growth inhibition rate TGI% (day 13) |
| --- | --- |
| B2 | 37.45% |

same assay, conditions: PA-1, 3 mg/kg, single administration, intravenous

| Molecule | Tumor growth inhibition rate TGI% (day 13) |
| --- | --- |
| B2 | 103.88% |
